In PMC7819943, “Rice protein-binding microarrays: a tool to detect cis-acting elements near promoter regions in rice”:
This is one part of the list.

What follows are sequences tested against T1, OsWOX13 (Oryza sativa, UniProt Q5QMM3 1-267) (assay: protein-binding microarray (RPBM); PBS, 2% BSA, 51.3 ng/ul salmon testes DNA, 50 uM zinc acetate, 200 nM TF, 25 C, 1 h; high values mean tight binding). Details: protein: recombinant; tags: N-terminal polyhistidine and DsRed monomer fusion (pET32a); label: CyDye5-dUTP incorporated in the synthesized complementary strand; 3' TTTTT single-stranded linker to array surface; dsDNA, one strand shown.
T1 sequence: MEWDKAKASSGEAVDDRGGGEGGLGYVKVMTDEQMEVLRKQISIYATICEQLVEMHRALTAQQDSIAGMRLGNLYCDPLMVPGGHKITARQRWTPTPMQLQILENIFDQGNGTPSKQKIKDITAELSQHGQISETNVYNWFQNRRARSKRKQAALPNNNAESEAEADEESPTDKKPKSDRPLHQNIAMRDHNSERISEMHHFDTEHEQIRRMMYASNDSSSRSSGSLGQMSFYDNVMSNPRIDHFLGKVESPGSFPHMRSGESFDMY
Summary of the method: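 Using Ni–NTA, transcription factors fused N-terminally to polyhistidine and DsRed were purified after expression in E. coli BL21-CodonPlus. These were incubated at 200 nM with a blocked, double-stranded custom Agilent array for 1 h at 25 °C in a buffer containing 50 µM zinc acetate, and the array was washed. The binding signal is per-feature fluorescence intensity (arbitrary units) on an Axon 4000B scanner.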
For “AATACTTAATTAATCACGCGCTAATGGAATACAACCCTATCGGAGTCACCTAGTGCAG”, the binding signal was 14100 fluorescence intensity (a.u.).
With “TACTGGATTAAATTATTTTGGACTTTCCCAAAATAGAACACGGAGTCACCTAGTGCAG” the binding signal was 3390 fluorescence intensity (a.u.).
For “GACGAATTAATTCCAAACAGCGCGAGGGCCTTCCATAACGCGGAGTCACCTAGTGCAG”, the binding signal was 3900 fluorescence intensity (a.u.).
“GCTAATAGATTGCTATTGTATCTGCTCTTATGCATGATCGCGGAGTCACCTAGTGCAG” was tested, and the binding signal was 61200 fluorescence intensity (a.u.).
“GCTAATTATAGTTTAATTAGGCTTAATAAATTTACAGTTTCGGAGTCACCTAGTGCAG” was tested, and the binding signal was 42300 fluorescence intensity (a.u.).
“TATGTAATTTTAGAATTTATATTATAAATACACTAAATTTCGGAGTCACCTAGTGCAG” was tested, and the binding signal was 5170 fluorescence intensity (a.u.).
In the case of “TCTCATCCTCCTTGATAGATTTCTTGAGCTTGGGACACGTCGGAGTCACCTAGTGCAG”, the binding signal is reported as 4310 fluorescence intensity (a.u.).
In the case of “AATAAATTAGGAAAAGAATATGTTTTAGGCTACATTCGACCGGAGTCACCTAGTGCAG”, the binding signal is reported as 12200 fluorescence intensity (a.u.).
For “CCCTAAATACATTCATAATTTTACTTCCACCGATCAAAATCGGAGTCACCTAGTGCAG”, the binding signal was 3190 fluorescence intensity (a.u.).
For “TTCCATCACATCAAAATTTTCCTACACACAAACTTTCAATCGGAGTCACCTAGTGCAG”, the binding signal was 3300 fluorescence intensity (a.u.).
For “CTTGTTTAATTAGAAAATATATATGGCAAGGAAATCAACGCGGAGTCACCTAGTGCAG”, the binding signal was 13200 fluorescence intensity (a.u.).
With “TAATTAACAAATTTAGATAAGAGTTATTTATTGTTGTAGGCGGAGTCACCTAGTGCAG” the binding signal was 9740 fluorescence intensity (a.u.).
For “ATATGTTTAATTAAAGTAGCATCTGAAAATTATGTTGAAGCGGAGTCACCTAGTGCAG”, the binding signal was 5960 fluorescence intensity (a.u.).
“AGTAACTTCAATGTTAATTGGAAATAACTTTTGCATTGTTCGGAGTCACCTAGTGCAG” was tested, and the binding signal was 18200 fluorescence intensity (a.u.).
In the case of “TTACTTTCAATAATTTGGATTATAATAATCCCAAACTTTGCGGAGTCACCTAGTGCAG”, the binding signal is reported as 5090 fluorescence intensity (a.u.).
With “TTGATGTGATGGAAAAGTTGAAAGTTTGGAACTAAACTCGCGGAGTCACCTAGTGCAG” the binding signal was 11300 fluorescence intensity (a.u.).
With “TTATATTTTAATTAAAACTATTATAATACACAATACGTCACGGAGTCACCTAGTGCAG” the binding signal was 10200 fluorescence intensity (a.u.).
With “ATAATTAAAACTCAATTAAACATACCCTAATAACTTTCTTCGGAGTCACCTAGTGCAG” the binding signal was 6130 fluorescence intensity (a.u.).
For “ATTTTAATTTGCACTGTTGGGATTTATGACTTTTGTTATACGGAGTCACCTAGTGCAG”, the binding signal was 18300 fluorescence intensity (a.u.).
“TGCACCTTACCTTAATTAGATTTATCACTAACATGTGAGTCGGAGTCACCTAGTGCAG” was tested, and the binding signal was 7800 fluorescence intensity (a.u.).
For “GAACGAATATATTCGTAATTGATATTTTGCAATGGCTAAACGGAGTCACCTAGTGCAG”, the binding signal was 10700 fluorescence intensity (a.u.).
With “TTTAAAATTTAACCCTAAATTACATTTACTCTAGACTCTACGGAGTCACCTAGTGCAG” the binding signal was 8730 fluorescence intensity (a.u.).
For “CAGTTGATTAGGGTCTATACGCATCGAAAATATTACTTTCCGGAGTCACCTAGTGCAG”, the binding signal was 27900 fluorescence intensity (a.u.).
“CTAGTTGACAGTTGACTCGTTAGTAGCTGACAGCGGGCCCCGGAGTCACCTAGTGCAG” was tested, and the binding signal was 3450 fluorescence intensity (a.u.).
“AAAATGTCAATTAAAATGAAACTGGAGGGAGTACTAGTACCGGAGTCACCTAGTGCAG” was tested, and the binding signal was 19500 fluorescence intensity (a.u.).
In the case of “ACTGTCGCTAATTGGTACAGTAGTTACCAATTCAGAATGGCGGAGTCACCTAGTGCAG”, the binding signal is reported as 27000 fluorescence intensity (a.u.).
“ATTGATAAATTGGTTATTTTGTTGGCTATTTAATTGATTTCGGAGTCACCTAGTGCAG” was tested, and the binding signal was 21400 fluorescence intensity (a.u.).
In the case of “AATGTTAATTAAACTGCTGATAACTAGCGAAGGAATTGAACGGAGTCACCTAGTGCAG”, the binding signal is reported as 31600 fluorescence intensity (a.u.).
With “ACAAACAAATTGAAATAAAATATAACTCCACAGCCACTGTCGGAGTCACCTAGTGCAG” the binding signal was 19600 fluorescence intensity (a.u.).
“CATAATTAGCATACTATAACATCGATAGACACGTTCTGACCGGAGTCACCTAGTGCAG” was tested, and the binding signal was 33400 fluorescence intensity (a.u.).
In the case of “GTGGGATTAGAATTGAGAAATGAATGAAAGGTTATGATTACGGAGTCACCTAGTGCAG”, the binding signal is reported as 12500 fluorescence intensity (a.u.).
“CGGATTAATTATGTTTAATAAATTCATCTCGCAATTTCCTCGGAGTCACCTAGTGCAG” was tested, and the binding signal was 27800 fluorescence intensity (a.u.).
“CTCGACAGTTACCTCTTAATTTAGTGGTGTACGTCATATACGGAGTCACCTAGTGCAG” was tested, and the binding signal was 5630 fluorescence intensity (a.u.).
With “TTATCTTGATAATCATTATTAAGTCCCTCATTGTAAGTTCCGGAGTCACCTAGTGCAG” the binding signal was 4240 fluorescence intensity (a.u.).
“ATTAAACTCGGCCTTAATTTTCGTGAAAATCACGTGTTTTCGGAGTCACCTAGTGCAG” was tested, and the binding signal was 5920 fluorescence intensity (a.u.).
For “ATCCATCATATCCAATCAAGAAAATGGAACACACAAGGAACGGAGTCACCTAGTGCAG”, the binding signal was 21100 fluorescence intensity (a.u.).
“GTGATGGATATAACAAATCTATTTATAACAACATTGTGATCGGAGTCACCTAGTGCAG” was tested, and the binding signal was 10700 fluorescence intensity (a.u.).
For “AACAATCAATCAATGCTGTAGTATTTACCAATGTCGAATTCGGAGTCACCTAGTGCAG”, the binding signal was 21800 fluorescence intensity (a.u.).
“AAAGTTGATTTTCTTTTGGGACGAAGGGTATGTAGTCAACCGGAGTCACCTAGTGCAG” was tested, and the binding signal was 10100 fluorescence intensity (a.u.).
With “CTCACAAACAGGTCAATCATACCAACAAGGAATGCCCTCACGGAGTCACCTAGTGCAG” the binding signal was 12400 fluorescence intensity (a.u.).
In the case of “TGTGTGAATTGACTATTAGATTTAGCTATATATAAATTAACGGAGTCACCTAGTGCAG”, the binding signal is reported as 4190 fluorescence intensity (a.u.).
For “ACATAACCGCGCAAATTTAGTTTATTCGTTACTCCCTCCGCGGAGTCACCTAGTGCAG”, the binding signal was 7170 fluorescence intensity (a.u.).
